Screen size: about 310,000 compounds; about 14,000 (4.5%) showed an effect of 50% or more. The effect is printed as a negative number. Some of the results follow.
What follows are molecules tested against human ether-à-go-go-related gene (hERG) potassium channel (human, UniProt Q12809) (assay: primary screen, population patch clamp on CHO cells stably expressing hERG).
Chain of human ether-à-go-go-related gene (hERG) potassium channel (Q12809 whole entry, looked up): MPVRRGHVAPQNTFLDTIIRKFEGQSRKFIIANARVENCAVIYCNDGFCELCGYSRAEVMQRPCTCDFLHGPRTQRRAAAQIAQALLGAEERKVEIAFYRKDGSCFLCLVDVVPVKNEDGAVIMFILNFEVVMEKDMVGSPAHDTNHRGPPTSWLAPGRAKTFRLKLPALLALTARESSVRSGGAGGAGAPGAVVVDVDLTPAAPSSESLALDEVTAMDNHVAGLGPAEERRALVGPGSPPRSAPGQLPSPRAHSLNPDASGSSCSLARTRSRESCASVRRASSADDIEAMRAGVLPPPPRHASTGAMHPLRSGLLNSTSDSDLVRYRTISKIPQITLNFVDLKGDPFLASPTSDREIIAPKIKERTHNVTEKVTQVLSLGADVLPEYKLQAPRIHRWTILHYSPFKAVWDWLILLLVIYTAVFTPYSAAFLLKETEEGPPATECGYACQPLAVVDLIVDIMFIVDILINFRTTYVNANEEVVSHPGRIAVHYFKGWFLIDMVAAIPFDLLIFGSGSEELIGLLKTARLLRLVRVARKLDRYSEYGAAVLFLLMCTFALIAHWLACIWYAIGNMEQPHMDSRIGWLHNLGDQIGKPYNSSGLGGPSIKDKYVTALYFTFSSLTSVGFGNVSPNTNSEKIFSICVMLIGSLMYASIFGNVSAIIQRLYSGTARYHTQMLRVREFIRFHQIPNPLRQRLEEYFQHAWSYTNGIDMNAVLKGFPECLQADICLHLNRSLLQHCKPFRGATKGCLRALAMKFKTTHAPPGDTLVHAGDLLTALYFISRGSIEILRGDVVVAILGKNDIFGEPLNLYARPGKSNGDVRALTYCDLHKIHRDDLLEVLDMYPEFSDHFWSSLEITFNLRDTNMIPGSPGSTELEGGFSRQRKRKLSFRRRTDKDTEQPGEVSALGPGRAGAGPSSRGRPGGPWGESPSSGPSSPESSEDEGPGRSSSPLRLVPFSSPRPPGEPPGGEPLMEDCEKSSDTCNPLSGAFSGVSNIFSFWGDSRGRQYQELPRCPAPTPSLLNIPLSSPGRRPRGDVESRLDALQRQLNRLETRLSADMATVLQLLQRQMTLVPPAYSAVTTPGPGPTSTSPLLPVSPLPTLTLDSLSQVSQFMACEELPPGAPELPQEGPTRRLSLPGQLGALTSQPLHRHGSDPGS
For `c1ccc(Cn2cc(-c3ccccc3)cn2)cc1`, the “hERG current change (%, negative = inhibition) at 10uM” value was -2.61%.
With `CS(=O)(=O)c1nc(S(=O)(=O)c2ccc(Cl)cc2)c(NCc2ccccn2)s1` the “hERG current change (%, negative = inhibition) at 10uM” value was -3.16%.
With `Cc1cc(C(=O)COC(=O)c2ccc(O)cc2O)c(C)n1C(C)C` the “hERG current change (%, negative = inhibition) at 10uM” value was 0.326%.
`CC(C)C1C(C#N)=C(N)Oc2n[nH]c(C(C)(C)C)c21` (stereo not drawn) was tested, and the “hERG current change (%, negative = inhibition) at 10uM” value was -18.1%.
In the case of `CCN1CCN(CCCOc2ccccc2-c2ccccc2)CC1.O=C(O)C(=O)O`, the “hERG current change (%, negative = inhibition) at 10uM” value was -66.6%.
In the case of `COc1ccccc1NC(=S)NNC(=O)c1nn(C)c(C)c1Br`, the “hERG current change (%, negative = inhibition) at 10uM” value was 26.4%.
In the case of `O=C(CCc1ccc(O)cc1)N/N=C/c1coc2ccccc2c1=O`, the “hERG current change (%, negative = inhibition) at 10uM” value was 1.81%.
For `CCS(=O)(=O)N1CCN(Cc2ccccc2OC)CC1.O=C(O)C(=O)O`, the “hERG current change (%, negative = inhibition) at 10uM” value was 11.7%.
`CCCn1nc(C(=O)Nc2ccc3c(c2)OCO3)c2ccccc2c1=O` was tested, and the “hERG current change (%, negative = inhibition) at 10uM” value was -12.4%.
`CC(C)(C)NC(=O)/C=C/c1ccc(C(F)(F)F)cc1` was tested, and the “hERG current change (%, negative = inhibition) at 10uM” value was 3.92%.
For `CCN(CC)C(=O)CSc1nc(Cc2ccccc2)nc2ccccc12`, the “hERG current change (%, negative = inhibition) at 10uM” value was 22.5%.
`CCOC(=O)C1=C(C)NC(=O)NC1c1ccc(OCCO)c(OC)c1` (stereo not drawn) was tested, and the “hERG current change (%, negative = inhibition) at 10uM” value was 15.3%.
With `Cn1c(=O)c2c(nc(NCc3ccccc3)n2CC(=O)NCc2ccccc2)n(C)c1=O` the “hERG current change (%, negative = inhibition) at 10uM” value was 0.0423%.
With `C[C@H]1CC[C@@]2(O[C@H](CCO)C[C@@H](O)[C@@H]2O)O1` the “hERG current change (%, negative = inhibition) at 10uM” value was 6.89%.
In the case of `O=C(O)c1ccc(N2C(=O)c3cccnc3C2=O)cc1`, the “hERG current change (%, negative = inhibition) at 10uM” value was 16.9%.
`CCN(CC)S(=O)(=O)c1ccc(N2CCOCC2)c(C(=O)O)c1` was tested, and the “hERG current change (%, negative = inhibition) at 10uM” value was -0.508%.
`CC(C)(C)c1ccc(OCCC(=O)NCCc2ccc(S(N)(=O)=O)cc2)cc1` was tested, and the “hERG current change (%, negative = inhibition) at 10uM” value was -16.1%.
`COc1ccccc1Nc1nn2c(=O)c3ccc(C(=O)N4CCCC(C)C4)cc3nc2s1` (stereo not drawn) was tested, and the “hERG current change (%, negative = inhibition) at 10uM” value was -12.2%.
In the case of `Cc1cc(C)c(NC2=NCC(=O)N2C2CCCCC2)c(C)c1`, the “hERG current change (%, negative = inhibition) at 10uM” value was 9.38%.
For `COc1ccc(/C=N\NC(=O)c2ccc(Cn3cc(Br)c([N+](=O)[O-])n3)o2)c(OC)c1C`, the “hERG current change (%, negative = inhibition) at 10uM” value was 14%.
`CC(C(=O)NCCC1=CCCCC1)N1C(=O)c2ccccc2C1=O` (stereo not drawn) was tested, and the “hERG current change (%, negative = inhibition) at 10uM” value was -11.2%.
With `CCOC(=O)/C(C#N)=C/c1c(Oc2cccc(C)c2)nc2c(C)cccn2c1=O` the “hERG current change (%, negative = inhibition) at 10uM” value was 8.68%.
For `CCOC(=O)Cc1ccc(NC(=O)c2ccc([N+](=O)[O-])cc2)cc1`, the “hERG current change (%, negative = inhibition) at 10uM” value was 15%.
`COCCn1c(=NC(=O)CSC(C)=O)sc2cc(OC)ccc21` was tested, and the “hERG current change (%, negative = inhibition) at 10uM” value was -37.7%.
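Also: peak tail current of the secondary pulse compared with the same well before compound.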
